Test results published in the supplement of paper PMC7826260.
The list shows a part of the results. Viral Rep nickase domains cut single-stranded DNA in vitro for 1 h at 37 °C with 3 µM enzyme; only the middle of the 90-letter strands is printed. Numbers give uncut DNA relative to the enzyme-free pool, as log2; strong cutting gives strongly negative numbers. There is no active / inactive call. Counts are relative to all reads; values above 0 arise when much of the pool is cut.

Legend:
Assay in all cases: uncleaved DNA left, log2 of reads against the no-enzyme library (log2 ratio); higher = less cleavage (more negative = more Rep cleavage of the k-mer); sequences stand for … in CTCGTCCG…ACCGGAGA
[1] = tested on: T1, Rep nickase domain of Muscovy duck circovirus
T1 sequence (protein, residues 1-111, tag omitted): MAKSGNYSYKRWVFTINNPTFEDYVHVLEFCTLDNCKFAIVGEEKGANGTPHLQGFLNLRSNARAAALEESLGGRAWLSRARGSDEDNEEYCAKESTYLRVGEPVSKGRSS
Protocol: (§1)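 A pool of 90-nt single-stranded DNAs with seven random bases just before the constant AC of the nick site (name = the seven bases) was cut by 3 µM recombinant His6-SUMO-tagged Rep nickase domain (300 nM DNA, 50 mM HEPES pH 8.0, 50 mM NaCl, 1 mM MnCl2, 1 h, 37 °C, three replicates). Uncut DNA was amplified and sequenced.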

[2] = tested on: T2, Rep nickase domain of banana bunchy top virus
T2 sequence (protein, residues 1-94, tag omitted): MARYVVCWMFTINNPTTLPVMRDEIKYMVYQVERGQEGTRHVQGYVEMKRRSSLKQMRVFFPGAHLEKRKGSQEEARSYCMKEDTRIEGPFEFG
Protocol: as §1

[3] = tested on: T3, Rep nickase domain of cabbage leaf curl virus
T3 sequence (protein, residues 1-116, tag omitted): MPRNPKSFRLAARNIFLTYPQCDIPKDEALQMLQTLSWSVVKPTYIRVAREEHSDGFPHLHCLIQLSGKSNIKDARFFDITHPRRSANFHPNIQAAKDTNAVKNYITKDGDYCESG
Protocol: as §1

[4] = tested on: T4, Rep nickase domain of chickpea chlorotic dwarf virus
T4 sequence (protein, residues 1-124, tag omitted): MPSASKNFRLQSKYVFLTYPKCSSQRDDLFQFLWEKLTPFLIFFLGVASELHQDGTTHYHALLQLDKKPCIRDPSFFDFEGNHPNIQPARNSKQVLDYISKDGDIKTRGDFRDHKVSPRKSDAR
Protocol: as §1

[5] = tested on: T5, Rep nickase domain of faba bean necrotic yellows virus
T5 sequence (protein, residues 1-98, tag omitted): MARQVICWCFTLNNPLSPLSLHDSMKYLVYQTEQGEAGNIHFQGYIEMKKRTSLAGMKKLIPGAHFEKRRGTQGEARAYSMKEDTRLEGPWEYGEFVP
Protocol: as §1

[6] = tested on: T6, Rep nickase domain of maize striate mosaic virus
T6 sequence (protein, residues 1-117, tag omitted): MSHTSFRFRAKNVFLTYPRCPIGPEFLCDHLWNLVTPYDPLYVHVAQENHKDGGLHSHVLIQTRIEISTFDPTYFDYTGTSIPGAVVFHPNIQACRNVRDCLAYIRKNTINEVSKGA
Protocol: as §1

[7] = tested on: T7, Rep nickase domain of porcine circovirus 2
T7 sequence (protein, residues 2-116, tag omitted): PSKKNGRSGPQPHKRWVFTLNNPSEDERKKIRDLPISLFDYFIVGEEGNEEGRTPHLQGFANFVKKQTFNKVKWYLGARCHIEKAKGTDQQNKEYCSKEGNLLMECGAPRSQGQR
Protocol: as §1

[8] = tested on: T8, Rep nickase domain of tomato golden mosaic virus
T8 sequence (protein, residues 1-124, tag omitted): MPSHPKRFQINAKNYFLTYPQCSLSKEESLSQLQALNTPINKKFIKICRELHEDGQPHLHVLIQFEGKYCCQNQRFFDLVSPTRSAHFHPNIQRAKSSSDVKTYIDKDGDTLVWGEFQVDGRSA
Protocol: as §1

[9] = tested on: T9, Rep nickase domain of tomato yellow leaf curl virus
T9 sequence (protein, residues 1-136, tag omitted): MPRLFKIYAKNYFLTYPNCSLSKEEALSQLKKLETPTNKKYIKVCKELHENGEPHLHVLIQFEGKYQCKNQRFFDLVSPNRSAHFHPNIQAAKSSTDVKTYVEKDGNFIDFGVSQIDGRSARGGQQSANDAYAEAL
Protocol: as §1

[10] = tested on: T10, Rep nickase domain of wheat dwarf virus
T10 sequence (protein, residues 1-137, tag omitted): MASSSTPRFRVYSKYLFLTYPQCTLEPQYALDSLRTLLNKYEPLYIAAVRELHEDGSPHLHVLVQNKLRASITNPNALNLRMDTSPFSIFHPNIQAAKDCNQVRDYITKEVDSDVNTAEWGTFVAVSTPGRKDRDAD
Protocol: as §1

| Sequence | uncleaved DNA left (log2) [1] | uncleaved DNA left (log2) [2] | uncleaved DNA left (log2) [3] | uncleaved DNA left (log2) [4] | uncleaved DNA left (log2) [5] | uncleaved DNA left (log2) [6] | uncleaved DNA left (log2) [7] | uncleaved DNA left (log2) [8] | uncleaved DNA left (log2) [9] | uncleaved DNA left (log2) [10] |
| --- | --- | --- | --- | --- | --- | --- | --- | --- | --- | --- |
| CTCGGAT | 0.0247 | -0.0527 | 0.215 | 1.38 | 0.1 | 1.82 | 0.0681 | 0.094 | -0.148 | -0.127 |
| AGTACGC | -0.0318 | -0.0936 | -0.0611 | -0.297 | 0.0454 | -0.54 | 0.0214 | -0.114 | 0.00252 | -0.0682 |
| GCTGGTA | -0.0531 | 0.0834 | 0.116 | 0.501 | -0.0293 | 1.08 | 0.0549 | -0.0604 | 0.0574 | -0.0323 |
| TCTCGTA | -0.0951 | -0.0333 | -0.0792 | -0.879 | 0.0275 | -0.757 | -0.13 | -0.0173 | 0.0169 | -0.116 |
| TATGTTG | -0.058 | -0.0772 | -0.477 | -0.661 | -0.0596 | -1.02 | 0.0302 | -0.161 | -0.00185 | -0.139 |
| AACGGGC | 0.0224 | 0.0347 | 0.431 | 0.656 | 0.00316 | 0.835 | 0.0495 | 0.0879 | -0.0912 | -0.0179 |
| TAAGCAT | 0.0773 | 0.0434 | -1.47 | -2.61 | 0.141 | 0.0517 | 0.0457 | -0.194 | 0.0832 | -0.287 |
| GATGCGC | 0.0915 | -0.0481 | -0.763 | 0.257 | -0.00136 | -0.704 | 0.0852 | 0.00596 | 0.000662 | -0.0651 |
| CGACGCT | -0.0869 | -0.0794 | -0.126 | 0.0197 | -0.074 | 0.581 | -0.101 | -0.181 | -0.115 | -0.0229 |
| GTGTTGA | 0.0402 | 0.0201 | 0.351 | 0.922 | 0.178 | 1.67 | 0.104 | 0.173 | 0.125 | 0.167 |
| GGCCTAC | -0.085 | 0.0724 | 0.429 | 0.842 | 0.0131 | 1.62 | -0.083 | 0.0184 | -0.0281 | 0.113 |
| CACACTA | -0.232 | -0.113 | -0.331 | -2.66 | -0.00575 | -0.976 | -0.221 | -0.127 | -0.117 | -0.134 |
| TTATACG | 0.0172 | 0.0745 | -0.775 | -0.731 | -0.106 | -1.17 | 0.125 | -0.028 | 0.0444 | -0.0687 |
| AATGTAT | 0.00229 | -0.0213 | 0.19 | 0.491 | -0.0661 | 1.12 | -0.204 | 0.0288 | -0.0504 | -0.0053 |
| ACTTGTA | 0.00247 | -0.0106 | -0.358 | -1.08 | 0.0457 | -0.939 | -0.387 | 0.029 | 0.035 | -0.0576 |
| AACCCCG | -0.0715 | 0.0163 | -0.864 | -0.246 | -0.0561 | -0.801 | -0.601 | -0.0213 | -0.0172 | -0.0934 |
| TCTTCTG | -0.0371 | -0.133 | -0.257 | -0.231 | -0.044 | -0.491 | 0.0106 | -0.0998 | -0.208 | -0.00488 |
| TTCATGT | -0.0159 | -0.125 | -0.0729 | -0.481 | 0.023 | -0.783 | -0.192 | -0.147 | -0.0119 | -0.113 |
| GTTTCGT | 0.0424 | -0.00105 | 0.153 | 0.536 | -0.0586 | 0.834 | -0.0618 | -0.0421 | 0.016 | 0.117 |
| GAAGGGT | 0.0765 | 0.177 | 0.348 | 1.49 | 0.00807 | 1.84 | 0.19 | 0.158 | -0.0114 | -0.0137 |
| GTCAATC | 0.00682 | 0.0567 | 0.293 | 0.992 | -0.0395 | 1.62 | 0.026 | 0.0876 | 0.165 | 0.0973 |
| TCATGCA | -0.022 | 0.0861 | -0.656 | -0.958 | 0.093 | -1.25 | 0.0512 | -0.05 | 0.103 | 0.0766 |
| CTCACCG | -0.191 | -0.135 | -0.88 | -0.517 | -0.145 | -0.99 | 0.00597 | -0.124 | -0.111 | -0.274 |
| GTACGAG | 0.0881 | 0.177 | 0.725 | 1.2 | 0.131 | 1.12 | 0.147 | 0.0853 | 0.108 | 0.171 |
| AGGGCCA | 0.0221 | 0.103 | 0.403 | 0.809 | -0.0455 | 1.28 | 0.103 | 0.114 | -0.0196 | 0.0817 |
| GATGACG | 0.0858 | 0.0748 | -0.458 | -0.285 | 0.0417 | -0.792 | 0.194 | 0.0426 | -0.0492 | 0.0678 |
| TCTGGAT | 0.0221 | 0.0027 | 0.327 | 1.52 | 0.00156 | 1.83 | 0.249 | 0.189 | -0.144 | 0.171 |
| GCGGGCG | -0.0724 | 0.0204 | -0.572 | 0.0316 | -0.00226 | -0.321 | 0.114 | -0.0887 | 0.054 | -0.0832 |
| TCGATTG | -0.0329 | 0.00972 | -0.0411 | 0.683 | -0.0316 | 1.47 | 0.0921 | 0.129 | -0.0276 | 0.0937 |
| AATGGAC | 0.035 | 0.021 | 0.318 | 1.12 | 0.00667 | 1.15 | 0.144 | 0.0871 | -0.0816 | 0.0668 |
